Results reported in PMC6212790.
This is one part of the list. At the low end of the ranking the order means little.

Biological target: T1, GST-Rok (full length) (UniProt O34857)
T1 sequence: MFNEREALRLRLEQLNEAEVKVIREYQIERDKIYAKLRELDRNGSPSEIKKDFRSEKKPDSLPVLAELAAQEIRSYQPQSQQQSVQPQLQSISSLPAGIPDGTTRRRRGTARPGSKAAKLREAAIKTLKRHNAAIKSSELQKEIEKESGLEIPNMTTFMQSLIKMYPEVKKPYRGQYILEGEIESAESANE
Experiment: protein binding microarray;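 note: rank score from −0.5 (least bound) to 0.5 (best bound)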
Conditions: Rok is a gene silencer of Bacillus subtilis; high values mean tight binding; most listed sequences are background and not binding sites; double strand, one strand shown

| Sequence | binding signal |
| --- | --- |
| AGAAGAGA | -0.0613 E-score |
| CACACATG | -0.193 E-score |
| CAATGATA | 0.22 E-score |
| AGTAGGCA | 0.114 E-score |
| AAACCCAC | 0.00229 E-score |
| AACACTTA | 0.112 E-score |
| GCCCGCAC | -0.243 E-score |
| GAATTCAC | 0.025 E-score |
| AACCCTCC | -0.245 E-score |
| TACGCTGA | 0.0217 E-score |
| AGAAAATC | 0.215 E-score |
| GCGTTTCC | -0.16 E-score |
| CGAAGATC | -0.127 E-score |
| GTGTTCGA | 0.0821 E-score |
| CAGGCACC | -0.264 E-score |
| ACGGAGCC | -0.0978 E-score |
| CAACACAA | 0.146 E-score |
| GACGCGTC | 0.0647 E-score |
| ACTCGGTA | 0.363 E-score |
| AAGAAGCA | 0.0687 E-score |
| ATACGAAC | 0.0226 E-score |
| CCCCCCCC | -0.417 E-score |
| GCCGGCCC | -0.369 E-score |
| ATGTGAAC | 0.125 E-score |
| ACTTGCCG | -0.0504 E-score |

| Sequence | binding signal |
| --- | --- |
| AAGCCTAA | -0.217 E-score |
| ATAGGCCC | -0.328 E-score |
| ATCCCAGC | -0.251 E-score |
| CTAGGCCC | -0.413 E-score |
| GACTCCGC | -0.184 E-score |
| ACCACGCG | 0.0125 E-score |
| GTGATTTA | 0.06 E-score |
| ATCAACAA | 0.0139 E-score |
| CGTTTTAA | 0.191 E-score |
| AAACAGTC | 0.0387 E-score |
| AACCAACA | 0.21 E-score |
| CGACCTAA | 0.0856 E-score |
| CCACGAAC | -0.124 E-score |
| ACGCAGTC | -0.0557 E-score |
| ATGCTAGC | 0.313 E-score |
| GTCGCACA | 0.0178 E-score |
| TGGTTACA | 0.0714 E-score |
| GGTCAACC | 0.00508 E-score |
| CTTTTAAA | -0.0285 E-score |
| CCGATTGA | 0.0484 E-score |
| CGTTCCAG | 0.0658 E-score |
| CCGGCAGA | -0.0543 E-score |
| GGGACAAC | -0.128 E-score |
| AAGCCCTT | -0.204 E-score |
| AACTTGGT | -0.0799 E-score |

| Sequence | binding signal |
| --- | --- |
| ATTCCACA | 0.036 E-score |
| CCCTAAAG | -0.286 E-score |
| CCGGAGAC | -0.152 E-score |
| GGTTGAGA | 0.0117 E-score |
| CAAGTCGC | -0.116 E-score |
| GGGCACGA | -0.288 E-score |
| GTAAGCGA | -0.0804 E-score |
| AGTTCAAA | 0.152 E-score |
| ATGGATAA | 0.192 E-score |
| GATACGCC | -0.112 E-score |
| ATAACTAC | 0.316 E-score |
| CTAGTAGC | 0.251 E-score |
| GTGTCATA | 0.129 E-score |
| GCTCCTAA | -0.194 E-score |
| CCCCACAA | -0.381 E-score |
| CGACGGAC | -0.29 E-score |
| AGGCTTTC | -0.134 E-score |
| GTAATTAA | 0.181 E-score |
| CCGGGAAA | -0.192 E-score |
| TAAAGCAA | 0.13 E-score |
| CGTCCAAG | -0.199 E-score |
| CACGCTAG | 0.104 E-score |
| CTATGCCA | 0.0425 E-score |
| CACCATGG | -0.179 E-score |
| GAAACAGC | -0.0415 E-score |

| Sequence | binding signal |
| --- | --- |
| ACCCATCA | -0.123 E-score |
| CTTAAGTA | 0.281 E-score |
| CACGTCTG | -0.0439 E-score |
| AATAGTAG | 0.469 E-score |
| ACCAGACT | -0.185 E-score |
| ACGTGGGG | -0.257 E-score |
| CAAAGGCA | -0.205 E-score |
| CCCACGGG | -0.366 E-score |
| AGTGCGTG | -0.121 E-score |
| TGAGTTAA | 0.172 E-score |
| CGGCACTA | 0.188 E-score |
| ATCGATGA | 0.0457 E-score |
| CCAGCCCG | -0.309 E-score |
| GGTTTTGA | -0.0831 E-score |
| GACCGCAC | -0.0911 E-score |
| GTAGGTTA | 0.224 E-score |
| CATTCTGA | -0.035 E-score |
| GGGTCTAC | -0.166 E-score |
| AGGTGTGG | -0.0638 E-score |
| GTGCCAAA | -0.127 E-score |
| TCTGATCA | 0.123 E-score |
| GTTGTGAA | -0.00107 E-score |
| CCTGTTCA | -0.173 E-score |
| GTCCCATA | -0.17 E-score |
| CCGAGTAC | -0.167 E-score |

| Sequence | binding signal |
| --- | --- |
| ACGTAACT | 0.18 E-score |
| ACGTTTGC | -0.0457 E-score |
| CGCTTAAC | -0.0163 E-score |
| ACCTTAAA | 0.0297 E-score |
| ATTCTCAG | 0.0171 E-score |
| GCGACCCA | -0.0296 E-score |
| CATCGTGC | 0.0085 E-score |
| ATAAGTAG | 0.322 E-score |
| AAAACGAA | 0.0895 E-score |
| CAGGTCAC | -0.34 E-score |
| GATACGAC | 0.0541 E-score |
| AATAATCT | 0.226 E-score |
| GAACACTA | -0.038 E-score |
| CGCTTGGA | -0.185 E-score |
| GCCGATGA | -0.108 E-score |
| GCACGGGC | -0.182 E-score |
| AACTAAGA | 0.138 E-score |
| CATCGTCA | -0.0178 E-score |
| ATATAGAA | 0.354 E-score |
| AGTGGCCG | -0.131 E-score |
| TACTGAGA | 0.0897 E-score |
| CTCCTGTC | -0.207 E-score |
| CGCTGCAG | -0.257 E-score |
| CAAGCGTC | -0.151 E-score |
| CTTTGTGC | -0.124 E-score |

| Sequence | binding signal |
| --- | --- |
| ATTCGCCG | -0.122 E-score |
| CGTCCTAG | -0.205 E-score |
| CTGCCCAA | -0.00414 E-score |
| AAGCGGAC | -0.039 E-score |
| AGTCACGA | -0.0143 E-score |
| ACGGTATA | 0.252 E-score |
| CCTGAAAC | -0.261 E-score |
| GATCTCCA | -0.0284 E-score |
| ATCCATTA | 0.209 E-score |
| CGTTCGTA | -0.128 E-score |
| CTAAGCGA | -0.133 E-score |
| GGCAAATA | 0.115 E-score |
| ATAACCGA | 0.00889 E-score |
| CGTGCGAG | -0.181 E-score |
| AACTCACG | 0.0828 E-score |
| CTGGAATC | 0.0163 E-score |
| ATAGGACG | 0.0518 E-score |
| CCATCGTC | 0.0123 E-score |
| TCAAGGGA | -0.141 E-score |
| CGTGATCC | -0.0331 E-score |
| AATCACTG | 0.0314 E-score |
| AATCCGGG | -0.129 E-score |
| TCTCTGCA | 0.0197 E-score |
| AGCTCAAT | 0.107 E-score |
| GAGGGGAC | -0.379 E-score |

| Sequence | binding signal |
| --- | --- |
| AGCCCCTC | -0.364 E-score |
| CCGGTCCC | -0.308 E-score |
| TTTGCAAA | 0.0787 E-score |
| GGGCGGAA | -0.285 E-score |
| GACATGGA | 0.0821 E-score |
| GGAGCCAC | -0.133 E-score |
| GCATGAAA | -0.00446 E-score |
| TAAGACAA | -0.0484 E-score |
| TACTAGAA | 0.375 E-score |
| CCTGTTGA | -0.00587 E-score |
| GCTCCTAC | -0.158 E-score |
| TGCATCAA | 0.156 E-score |
| CGCGGCAA | 0.00655 E-score |
| AACAGCCA | -0.163 E-score |
| CAACCGAC | -0.153 E-score |
| CCGATAGA | 0.214 E-score |
| ACAGGCCT | -0.262 E-score |
| CCAGTTGA | -0.204 E-score |
| CTAGATAG | 0.346 E-score |
| AATCCCTA | -0.00541 E-score |
| CAGATAAA | 0.233 E-score |
| AGAGACAA | -0.0075 E-score |
| ATGCTCAA | -0.163 E-score |
| TCTGGTAA | 0.246 E-score |
| ATTTCCGA | 0.0761 E-score |

| Sequence | binding signal |
| --- | --- |
| TACTAGCA | 0.243 E-score |
| AGGGTAAC | -0.114 E-score |
| AGTCTAAA | 0.0861 E-score |
| CAATCTGC | -0.111 E-score |
| ACTCGTGA | -0.0872 E-score |
| TATGTGCA | 0.0767 E-score |
| AGCTGATG | 0.0192 E-score |
| AGACTCCA | -0.115 E-score |
| GGTTAAAC | 0.00977 E-score |
| ACAGCCCC | -0.302 E-score |
| ACAATACC | 0.13 E-score |
| ATTGAACC | -0.0443 E-score |
| CTGTTAGC | 0.245 E-score |
| CCAGCGCC | -0.273 E-score |
| GGCTACCC | -0.301 E-score |
| ATAATATC | 0.274 E-score |
| CAGGTCGC | -0.189 E-score |
| AGTGTCGG | 0.0887 E-score |
| ATTGAACG | 0.126 E-score |
| TGGCGCAA | -0.0245 E-score |
| AGGGATTG | -0.0956 E-score |
| AGTTACCC | 0.179 E-score |
| AAAAGTTG | 0.108 E-score |
| AGCGGATG | -0.0617 E-score |
| AGTCTCAT | -0.0786 E-score |

| Sequence | binding signal |
| --- | --- |
| CGTGTAAA | 0.0525 E-score |
| AAGGTCAT | 0.115 E-score |
| ATGCGCAC | -0.0448 E-score |
| CGATTAGC | 0.114 E-score |
| CAGCCCTA | -0.104 E-score |
| CCTTCTAG | 0.0601 E-score |
| AAGACATT | 0.0855 E-score |
| AGCACAGC | -0.113 E-score |
| AATATTGT | 0.34 E-score |
| GCCGACGA | -0.251 E-score |
| GATTTTGA | 0.0717 E-score |
| GGGTACCA | -0.226 E-score |
| ACCATGTA | 0.385 E-score |
| ATGACCTA | 0.00444 E-score |
| ATCTTTTA | 0.233 E-score |
| CAGCTGCG | -0.211 E-score |
| CCTCATAC | 0.0684 E-score |
| CAAATACA | 0.23 E-score |
| ACGCTTGG | -0.243 E-score |
